Reference: paper PMC7997005, “Dynamic interplay between the co-opted Fis1 mitochondrial fission protein and membrane contact site proteins in supporting tombusvirus replication” (PLoS Pathogens, 2021)
Read-outs that look alike come from different tables or passages of the source. These are yes or no findings as the source states them, for the method shown. For part of these data: In cells and extracts the contact can be indirect. Some entries that bind do so weakly or less than the wild type. For part of these data: Tags and fused reporters may be left off the sequences shown.

Amino acid sequences for entries named in this document (tags omitted).
UniProt Q9M1J1: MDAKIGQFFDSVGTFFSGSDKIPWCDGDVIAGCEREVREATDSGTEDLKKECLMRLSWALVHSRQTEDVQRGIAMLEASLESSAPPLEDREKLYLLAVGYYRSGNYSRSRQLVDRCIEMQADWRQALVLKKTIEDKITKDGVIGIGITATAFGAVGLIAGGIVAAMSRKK

Key:
[1] = target: T1, TBSV Flag-p33 replication protein (tomato bushy stunt virus (TBSV)) (UniProt P15962); experiment: co-IP; Flag-affinity purification of Flag-tagged replication proteins (TBSV Flag-p33 + Flag-p92pol or CIRV Flag-p36 + Flag-p95pol) from the detergent-solubilized membrane fraction of yeast; samples cross-linked with formaldehyde; co-purified His6-tagged proteins detected with anti-His antibody; WT, fis1Δ, Fis1p- or Dnm1-ZZ-over-expressing yeast; cycloheximide time course
T1 sequence: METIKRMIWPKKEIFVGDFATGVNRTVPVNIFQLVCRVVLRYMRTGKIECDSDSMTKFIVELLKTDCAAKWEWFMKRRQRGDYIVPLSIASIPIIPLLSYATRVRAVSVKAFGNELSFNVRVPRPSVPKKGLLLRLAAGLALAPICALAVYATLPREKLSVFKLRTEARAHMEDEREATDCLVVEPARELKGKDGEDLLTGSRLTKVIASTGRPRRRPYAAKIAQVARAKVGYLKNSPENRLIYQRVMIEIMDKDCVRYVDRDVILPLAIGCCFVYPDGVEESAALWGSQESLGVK

[2] = target: T2, TBSV p33 replication protein, MYTH bait (tomato bushy stunt virus (TBSV)) (UniProt P15962); experiment: two-hybrid; split-ubiquitin-based membrane yeast two-hybrid assay (MYTH) in yeast; bait (TBSV p33 or yeast Fis1p) co-expressed with NubG prey proteins
T2 sequence: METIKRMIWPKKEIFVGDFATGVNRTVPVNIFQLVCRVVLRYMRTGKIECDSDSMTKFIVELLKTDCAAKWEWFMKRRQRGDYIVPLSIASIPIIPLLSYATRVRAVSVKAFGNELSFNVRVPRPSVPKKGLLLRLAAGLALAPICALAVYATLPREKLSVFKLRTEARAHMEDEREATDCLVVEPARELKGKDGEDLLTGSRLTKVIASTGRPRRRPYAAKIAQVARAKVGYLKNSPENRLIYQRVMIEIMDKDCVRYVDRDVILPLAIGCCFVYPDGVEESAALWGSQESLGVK

[3] = target: T3, TBSV p33-cYFP replication protein (tomato bushy stunt virus (TBSV)) (UniProt P15962); experiment: split reporter; BiFC (nYFP/cYFP fusions, 35S promoter, co-agroinfiltration) in N. benthamiana leaves infected with TBSV or CIRV; confocal microscopy; includes TRV-MBP control plants
T3 sequence: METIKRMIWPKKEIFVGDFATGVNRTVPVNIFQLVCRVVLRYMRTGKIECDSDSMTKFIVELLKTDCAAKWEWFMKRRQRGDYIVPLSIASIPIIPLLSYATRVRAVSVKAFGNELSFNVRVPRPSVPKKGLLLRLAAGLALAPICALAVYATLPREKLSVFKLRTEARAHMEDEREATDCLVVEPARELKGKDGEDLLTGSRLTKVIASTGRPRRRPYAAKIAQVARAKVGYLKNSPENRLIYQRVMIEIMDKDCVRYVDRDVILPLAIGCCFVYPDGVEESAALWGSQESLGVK

[4] = target: T1, TBSV Flag-p33 replication protein (tomato bushy stunt virus (TBSV)); experiment: co-IP; Flag-affinity purification of Flag-tagged replication proteins (TBSV Flag-p33 + Flag-p92pol or CIRV Flag-p36 + Flag-p95pol) from the detergent-solubilized membrane fraction of yeast; samples cross-linked with formaldehyde; co-purified His6-tagged proteins detected with anti-His antibody; WT, fis1Δ, Fis1p- or Dnm1-ZZ-over-expressing yeast; cycloheximide time course; remark: listed apart in the source
[5] = target: T4, yeast Fis1p, MYTH bait (S. cerevisiae) (UniProt P40515); experiment: two-hybrid; split-ubiquitin-based membrane yeast two-hybrid assay (MYTH) in yeast; bait (TBSV p33 or yeast Fis1p) co-expressed with NubG prey proteins
T4 sequence: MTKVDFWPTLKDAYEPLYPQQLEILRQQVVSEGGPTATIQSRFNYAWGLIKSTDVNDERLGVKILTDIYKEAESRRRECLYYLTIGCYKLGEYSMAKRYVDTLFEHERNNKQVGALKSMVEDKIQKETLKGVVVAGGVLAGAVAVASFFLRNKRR

His6-AtFis1A (from UniProt Q9M1J1 1-170)
binding [1]: binds

Fis1p with deletion of 92 N-terminal amino acids, MYTH prey (from UniProt P40515 93-155) (domain or fragment)
binding [2]: binds weakly

His6-Fis1-ΔC25 (from UniProt P40515 1-130) (domain or fragment)
binding [1]: binds

nYFP-AtFis1A (from UniProt Q9M1J1 1-170)
binding [3]: binds

Fis1-ΔN54, MYTH prey (from UniProt P40515 55-155) (domain or fragment)
binding [2]: binds weakly

His6-Fis1p with deletion of 92 N-terminal amino acids (from UniProt P40515 93-155) (domain or fragment)
binding [1]: binds weakly

His6-Fis1-ΔN54 (from UniProt P40515 55-155) (domain or fragment)
binding [1]: binds weakly

Fis1-ΔC25, MYTH prey (from UniProt P40515 1-130) (domain or fragment)
binding [2]: binds

Arabidopsis Fis1A, MYTH prey (from UniProt Q9M1J1 1-170)
binding [2]: binds

B1: yeast His6-Sac1p (enzyme, S. cerevisiae, UniProt P32368 1-623, looked up)
chain: MTGPIVYVQNADGIFFKLAEGKGTNDAVIHLANQDQGVRVLGAEEFPVQGEVVKIASLMGFIKLKLNRYAIIANTVEETGRFNGHVFYRVLQHSIVSTKFNSRIDSEEAEYIKLLELHLKNSTFYFSYTYDLTNSLQRNEKVGPAASWKTADERFFWNHYLTEDLRNFAHQDPRIDSFIQPVIYGYAKTVDAVLNATPIVLGLITRRSIFRAGTRYFRRGVDKDGNVGNFNETEQILLAENPESEKIHVFSFLQTRGSVPIYWAEINNLKYKPNLVLGENSLDATKKHFDQQKELYGDNYLVNLVNQKGHELPVKEGYESVVHALNDPKIHYVYFDFHHECRKMQWHRVKLLIDHLEKLGLSNEDFFHKVIDSNGNTVEIVNEQHSVVRTNCMDCLDRTNVVQSVLAQWVLQKEFESADVVATGSTWEDNAPLLTSYQNLWADNADAVSVAYSGTGALKTDFTRTGKRTRLGAFNDFLNSASRYYQNNWTDGPRQDSYDLFLGGFRPHTASIKSPFPDRRPVYIQLIPMIICAALTVLGATIFFPKDRFTSSKNLLYFAGASIVLALSTKFMFKNGIQFVNWPKLVDVGFLVVHQTHDKEQQFKGLKYAQSPKFSKPDPLKRD
notes: Sac1p PI4P phosphatase, S. cerevisiae; source: yeast, expressed from a plasmid, in detergent-solubilized membrane fraction
binding [4]: binds

B2: yeast Sac1p PI4P phosphatase, MYTH prey (enzyme, UniProt P32368 1-623)
chain: MTGPIVYVQNADGIFFKLAEGKGTNDAVIHLANQDQGVRVLGAEEFPVQGEVVKIASLMGFIKLKLNRYAIIANTVEETGRFNGHVFYRVLQHSIVSTKFNSRIDSEEAEYIKLLELHLKNSTFYFSYTYDLTNSLQRNEKVGPAASWKTADERFFWNHYLTEDLRNFAHQDPRIDSFIQPVIYGYAKTVDAVLNATPIVLGLITRRSIFRAGTRYFRRGVDKDGNVGNFNETEQILLAENPESEKIHVFSFLQTRGSVPIYWAEINNLKYKPNLVLGENSLDATKKHFDQQKELYGDNYLVNLVNQKGHELPVKEGYESVVHALNDPKIHYVYFDFHHECRKMQWHRVKLLIDHLEKLGLSNEDFFHKVIDSNGNTVEIVNEQHSVVRTNCMDCLDRTNVVQSVLAQWVLQKEFESADVVATGSTWEDNAPLLTSYQNLWADNADAVSVAYSGTGALKTDFTRTGKRTRLGAFNDFLNSASRYYQNNWTDGPRQDSYDLFLGGFRPHTASIKSPFPDRRPVYIQLIPMIICAALTVLGATIFFPKDRFTSSKNLLYFAGASIVLALSTKFMFKNGIQFVNWPKLVDVGFLVVHQTHDKEQQFKGLKYAQSPKFSKPDPLKRD
binding [5]: binds

B3: yeast Fis1p mitochondrial fission 1 protein, MYTH prey (protein, UniProt P40515 1-155)
chain: MTKVDFWPTLKDAYEPLYPQQLEILRQQVVSEGGPTATIQSRFNYAWGLIKSTDVNDERLGVKILTDIYKEAESRRRECLYYLTIGCYKLGEYSMAKRYVDTLFEHERNNKQVGALKSMVEDKIQKETLKGVVVAGGVLAGAVAVASFFLRNKRR
binding [2]: binds

B4: yeast His6-Fis1p (natural protein, S. cerevisiae, UniProt P40515 1-155, looked up)
chain: MTKVDFWPTLKDAYEPLYPQQLEILRQQVVSEGGPTATIQSRFNYAWGLIKSTDVNDERLGVKILTDIYKEAESRRRECLYYLTIGCYKLGEYSMAKRYVDTLFEHERNNKQVGALKSMVEDKIQKETLKGVVVAGGVLAGAVAVASFFLRNKRR
notes: Fis1p mitochondrial fission 1 protein, S. cerevisiae; also called HisScFis1; source: yeast, expressed from a plasmid, in detergent-solubilized membrane fraction
binding [4]: binds

B5: yeast His6-Scs2p VAP protein (protein, UniProt P40075 1-244)
chain: MSAVEISPDVLVYKSPLTEQSTEYASISNNSDQTIAFKVKTTAPKFYCVRPNAAVVAPGETIQVQVIFLGLTEEPAADFKCRDKFLVITLPSPYDLNGKAVADVWSDLEAEFKQQAISKKIKVKYLISPDVHPAQNQNIQENKETVEPVVQDSEPKEVPAVVNEKEVPAEPETQPPVQVKKEEVPPVVQKTVPHENEKQTSNSTPAPQNQIKEAATVPAENESSSMGIFILVALLILVLGWFYR
binding [4]: binds

B6: yeast Scs2p VAP protein, MYTH prey (protein, UniProt P40075 1-244)
chain: MSAVEISPDVLVYKSPLTEQSTEYASISNNSDQTIAFKVKTTAPKFYCVRPNAAVVAPGETIQVQVIFLGLTEEPAADFKCRDKFLVITLPSPYDLNGKAVADVWSDLEAEFKQQAISKKIKVKYLISPDVHPAQNQNIQENKETVEPVVQDSEPKEVPAVVNEKEVPAEPETQPPVQVKKEEVPPVVQKTVPHENEKQTSNSTPAPQNQIKEAATVPAENESSSMGIFILVALLILVLGWFYR
binding [5]: binds

B7: Arabidopsis AtVAP27-1, MYTH prey (protein, UniProt Q8VZ95 1-256)
chain: MSNIDLIGMSNRDLIGMSNSELLTVEPLDLQFPFELKKQISCSLYLTNKTDNNVAFKVKTTNPKKYCVRPNTGVVLPRSTCEVLVTMQAQKEAPSDMQCKDKFLLQGVIASPGVTAKEVTPEMFSKEAGHRVEETKLRVTYVAPPRPPSPVHEGSEEGSSPRASVSDNGHGSEFSFERFIVDNKAGHQENTSEARALITKLTEEKQSAIQLNNRLQRELDQLRRESKKSQSGGIPFMYVLLVGLIGLILGYIMKRT
binding [5]: binds

B8: yeast His6-Osh6p (natural protein, S. cerevisiae, UniProt Q02201 1-448, looked up)
chain: MGSKKLTVGSDSHRLSKSSFSSNKSSHSATKDQPIDTDDIDEDDESGHNIILNIISQLRPGCDLTRITLPTFILEKKSMLERVTNQLQFPEFLLQAHSEKDPLKRFLYVMKWYLAGWHIAPKAVKKPLNPVLGEYFTAYWDLPNKQQAYYISEQTSHHPPECAYFYMIPESSIRVDGVVIPKSRFLGNSSAAMMDGSTVLQFLDIKDGNGKPEKYVLTQPNVYVRGILFGKMRIELGDHMIIKSPNFQADIEFKTKGYVFGTYDAIEGTVKDYDGNAYYEISGKWNDVMYLKDLKQPRSSPKVFLDTHKESPLRPKVRPLSEQGEYESRKLWKKVTDALAVRNHPVATEEKFQIEDHQRQLAKKRIEDGVEFHPKLFRRSKPGEDLDYCIYKNIPVDEDPEKQIRSILQIAPILPGQQFTDKFFIPAFEKIKSQKKMIENEKQNPAKQ
notes: source: yeast, expressed from a plasmid, in detergent-solubilized membrane fraction
binding [4]: binds

B9: yeast Osh6p oxysterol-binding protein, MYTH prey (protein, UniProt Q02201 1-448)
chain: MGSKKLTVGSDSHRLSKSSFSSNKSSHSATKDQPIDTDDIDEDDESGHNIILNIISQLRPGCDLTRITLPTFILEKKSMLERVTNQLQFPEFLLQAHSEKDPLKRFLYVMKWYLAGWHIAPKAVKKPLNPVLGEYFTAYWDLPNKQQAYYISEQTSHHPPECAYFYMIPESSIRVDGVVIPKSRFLGNSSAAMMDGSTVLQFLDIKDGNGKPEKYVLTQPNVYVRGILFGKMRIELGDHMIIKSPNFQADIEFKTKGYVFGTYDAIEGTVKDYDGNAYYEISGKWNDVMYLKDLKQPRSSPKVFLDTHKESPLRPKVRPLSEQGEYESRKLWKKVTDALAVRNHPVATEEKFQIEDHQRQLAKKRIEDGVEFHPKLFRRSKPGEDLDYCIYKNIPVDEDPEKQIRSILQIAPILPGQQFTDKFFIPAFEKIKSQKKMIENEKQNPAKQ
binding [5]: binds

B10: Arabidopsis Fis1B, MYTH prey (protein, UniProt Q94CK3 1-167)
chain: MDAAIGKVFDSVSDFFSGAASASADEFPLCDSDIISGCEKELAEAQDEGRKKECIMRLSWALVHSKMPSDIQRGIAMLEALVVNDTSAMKLREKLYLLALGYYRSGDFSRSRDCIERCLEVEPESGQAQALKKAIEDRIVKDGVIGVGIAVTAVGVVAGIAAAILRS
binding [2]: binds

B11: nYFP-AtFis1B (protein, UniProt Q94CK3 1-167)
chain: MDAAIGKVFDSVSDFFSGAASASADEFPLCDSDIISGCEKELAEAQDEGRKKECIMRLSWALVHSKMPSDIQRGIAMLEALVVNDTSAMKLREKLYLLALGYYRSGDFSRSRDCIERCLEVEPESGQAQALKKAIEDRIVKDGVIGVGIAVTAVGVVAGIAAAILRS
binding [3]: binds

B12: His6-AtFis1B (protein, UniProt Q94CK3 1-167)
chain: MDAAIGKVFDSVSDFFSGAASASADEFPLCDSDIISGCEKELAEAQDEGRKKECIMRLSWALVHSKMPSDIQRGIAMLEALVVNDTSAMKLREKLYLLALGYYRSGDFSRSRDCIERCLEVEPESGQAQALKKAIEDRIVKDGVIGVGIAVTAVGVVAGIAAAILRS
binding [4]: binds
